# From US20250361297A1, “ANTI- SIGLEC-15 BINDING MOLECULES AND METHODS OF USE” (ADAPTAM THERAPEUTICS, S.L., priority 2024, published 2025)
# T1: mouse Siglec-15 (Mus musculus, UniProt A7E1W8)
# T1 construct: HEK293T cells were genetically engineered to express full-length mouse Siglec-15; expressed in transfected cells; host or cells: HEK293T
# T1 sequence (A7E1W8 24-342): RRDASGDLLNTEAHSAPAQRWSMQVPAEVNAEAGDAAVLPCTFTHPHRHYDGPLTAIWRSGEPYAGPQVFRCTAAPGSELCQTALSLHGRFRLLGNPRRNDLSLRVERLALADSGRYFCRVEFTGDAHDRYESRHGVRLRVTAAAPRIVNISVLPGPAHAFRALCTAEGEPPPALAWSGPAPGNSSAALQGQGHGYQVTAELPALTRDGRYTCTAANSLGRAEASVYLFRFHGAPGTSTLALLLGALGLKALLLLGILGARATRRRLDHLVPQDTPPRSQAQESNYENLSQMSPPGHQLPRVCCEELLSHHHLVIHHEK
# T2: human Siglec-15 (Homo sapiens, UniProt Q6ZMC9)
# T2 construct: expressed in transfected cells
# T2 sequence (Q6ZMC9 20-328): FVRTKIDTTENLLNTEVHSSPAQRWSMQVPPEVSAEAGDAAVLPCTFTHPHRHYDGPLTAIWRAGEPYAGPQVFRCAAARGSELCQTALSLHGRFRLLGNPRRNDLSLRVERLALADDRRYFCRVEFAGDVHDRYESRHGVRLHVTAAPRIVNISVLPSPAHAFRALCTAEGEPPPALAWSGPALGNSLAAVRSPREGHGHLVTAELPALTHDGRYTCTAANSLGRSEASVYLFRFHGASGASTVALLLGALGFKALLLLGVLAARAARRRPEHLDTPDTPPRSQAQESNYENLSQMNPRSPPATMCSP
# T3: mutant version of Siglec-15 (R143A) (Homo sapiens, UniProt Q6ZMC9, R143A)
# T3 construct: expressed in transfected cells; host or cells: HEK293T
# T3 sequence (Q6ZMC9 20-328 R143A): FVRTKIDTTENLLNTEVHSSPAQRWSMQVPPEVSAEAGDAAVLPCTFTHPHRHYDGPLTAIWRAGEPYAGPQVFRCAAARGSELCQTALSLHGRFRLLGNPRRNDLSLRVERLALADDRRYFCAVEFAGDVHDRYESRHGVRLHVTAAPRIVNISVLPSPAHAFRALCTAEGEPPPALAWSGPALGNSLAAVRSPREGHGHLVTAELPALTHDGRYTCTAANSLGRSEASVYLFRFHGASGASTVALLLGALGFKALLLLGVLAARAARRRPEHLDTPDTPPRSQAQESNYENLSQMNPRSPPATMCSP
# T4: THP-1 cells overexpressing human Siglec-15 (Homo sapiens, UniProt Q6ZMC9)
# T4 construct: Human full-length Siglec-15 and CD19 genes were synthesized and cloned into the pLV-MSCV lentiviral vector; His; expressed in transfected cells; host or cells: THP-1 (lentiviral overexpression, 'THP-1 S15 OE')
# T4 sequence (Q6ZMC9 20-328): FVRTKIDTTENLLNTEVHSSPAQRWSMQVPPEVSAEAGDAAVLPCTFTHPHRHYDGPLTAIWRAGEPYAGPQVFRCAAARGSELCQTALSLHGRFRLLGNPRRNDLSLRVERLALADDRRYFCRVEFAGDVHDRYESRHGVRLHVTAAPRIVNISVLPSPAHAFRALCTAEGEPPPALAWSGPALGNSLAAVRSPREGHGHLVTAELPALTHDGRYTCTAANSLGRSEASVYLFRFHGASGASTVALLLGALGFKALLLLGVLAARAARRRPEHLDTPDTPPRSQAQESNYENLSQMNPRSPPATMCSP
# Columns and labels:
# mouse Siglec-15 = biological target: T1, mouse Siglec-15; test: Titration on HEK293T cells expressing mouse Siglec-15 (flow cytometry); assay type: binding; details: titrated from 10 μg/ml
# Protocol: Cross-species reactivity and domain-specific binding of the full-length anti-Siglec-15 antibody candidates were evaluated. The antibodies were titrated against HEK293T cells expressing mouse Siglec-15 or HEK293T cells expressing a truncated human Siglec-15 consisting solely of domain 2 (FIG. 9). […] However, the binding to mouse Siglec-15 was evident for all tested antibodies, with EC50 values calculated to rank the affinity of the antibodies.
# (§1) For the ELISA, antigens were immobilized on high-binding plates, and the full-length IgG1 anti-Siglec-15 antibodies were titrated beginning at a concentration of 10 μg/ml. After washing, an anti-human IgG Fab-specific HRP-conjugated secondary antibody was applied for detection. Palivizumab was included as the negative control. Optical densities were measured to generate binding curves from which EC50 values were derived. In the flow cytometry assay, MOLM-13 cells expressing human Siglec-15 and MOLM-13 wild-type cells (negative control) were incubated with titrated antibodies starting at 10 μg/ml. After incubation, cells were washed and incubated with an anti-human Fc-specific secondary antibody conjugated with a fluorescent marker. Flow cytometric analysis was conducted, and fluorescence intensity was used to calculate EC50 values, providing a quantitative assessment of the antibodies' cell surface binding efficacy. HEK293T cells were genetically engineered to express full-length mouse Siglec-15 and a truncated version of human Siglec-15 encompassing only domain 2. Antibodies were titrated starting at a concentration of 10 μg/ml and detected with an anti-human Fc-specific secondary antibody to detect bound primary antibodies. The half-maximal effective concentration (EC50) was calculated for each antibody to determine its binding affinity to mouse Siglec-15. Results were analyzed and ranked based on the EC50 values.
# human Siglec-15 [1] = biological target: T2, human Siglec-15; test: Titration of full-length IgG1 antibodies on human Siglec-15 (ELISA / flow cytometry on MOLM-13 Siglec-15 cells); assay type: binding; details: full-length human IgG1, titrated from 10 μg/ml
# Protocol: The binding efficacy of the converted full-length IgG1 anti-Siglec-15 antibodies was then evaluated using both ELISA and flow cytometry. By immobilizing the antigen and titrating the antibodies starting at a concentration of 10 μg/ml, binding kinetics were determined via ELISA, using an anti-human IgG Fab-specific secondary antibody for detection. Palivizumab served as the negative control in these assays (FIG. 8A). Complementary to the ELISA, flow cytometry assays provided insight into the binding behavior of the antibodies on the cell surface. Here, titration of the antibodies began at the same concentration of 10 μg/ml, using MOLM-13 human Siglec-15 and MOLM-13 wild-type cells as a negative control, with detection performed using an anti-human Fc secondary antibody (FIG. 8B). Clone ZLA-1243-A01 is exemplified in an ELISA binding curve (FIG. 14A) and in a MOLM-13 flow cytometry analysis (FIG. 14B). From these assays, EC50 values were calculated, offering a quantitative measure of the antibodies' affinity towards Siglec-15, and leading to the selection of 7 unique hits (Table 10).
# as §1, with “In the flow cytometry assay, MOLM-13 cells expressing human Siglec-15 and MOLM-13 wild-type cells (negative control) were incubated with titrated antibodies starting at 10 μg/ml. After incubation, cells were washed and incubated with an anti-human Fc-specific secondary antibody conjugated with a fluorescent marker.” left out, “HEK293T cells were genetically engineered to express full-length mouse Siglec-15 and a truncated version of human Siglec-15 encompassing only domain 2.” left out
# human Siglec-15 [2] = biological target: T2, human Siglec-15; test: as above; assay type: binding; details: phage display clones; Siglec-15 expressing cells
# osteoclast activation = test: Osteoclast activation in vitro (CTX-I in culture medium); assay type: cell-based; details: relative to baseline; control odanacatib 1 μM (FIG. 47)
# human Siglec-15 [3] = biological target: T2, human Siglec-15; test: Competitive flow cytometry assay with benchmark antibodies; assay type: binding
# Protocol: Epitope mapping assay by Flow cytometry: Competition with benchmark mouse IgG antibodies: 50,000 cells/well of THP-1 S15 OE were added to a round bottom 96 well plate, and centrifuged at 450×G for 5 minutes, and the supernatant was discarded. Human anti-siglec-15 IgG antibodies (starting at 198 nM, 3-fold serial dilution in staining buffer) were added to 100 μl of staining buffer and cells were resuspended with it and incubated for 40 minutes on ice. 100 μl of staining buffer were added to wells, centrifuged at 450× G for 5 minutes and the supernatants discarded. Benchmark mouse IgG antibodies were diluted at 33.3 nM and cells resuspended in 100 μl of the mix and incubated for 40 minutes on ice. Then, 100 μl of staining buffer were added to wells, centrifuged at 450×G for 5 minutes and the supernatants discarded. The secondary antibody anti-mouse IgG-Alexa647 was prepared at 1:200 dilution in 100 μl of staining buffer and added to each well, and cells were incubated for 40 minutes on ice. Cells were washed with 100 μl of staining buffer and centrifuged at 450×G for 5 minutes to discard the supernatant. Cells were resuspended in 150 μl of staining buffer and acquired in a flow cytometer.
# [4] = biological target: T3, mutant version of Siglec-15 (R143A); test: Flow cytometry binding to HEK293T cells expressing mutant Siglec-15 (R143A); details: flow cytometry (FIG. 20, FIG. 21)
# Protocol: Assessment of the binding of anti-Siglec-15 antibodies to HEK293T cells expressing full length human Siglec-15, or mutant human Siglec-15 (R143A) or the domain 2 of human Siglec-15 by Flow cytometry: Siglec-15+, Siglec-15+R143A, and Siglec-15 Domain 2 (D2) HEK293T cells were detached using tryple and washed once with PBS, resuspended in 1× flow cytometry buffer (PBS with 1% FBS) at approximately 1-2×10^6 cells/mL. Then, anti-Siglec-15 mAbs were added to the cell suspension at the desired concentration, starting at 10 μg/mL and performing 1/3 dilutions. Cells were incubated with the indicated antibodies for 30-60 minutes at 4° C. in the dark to prevent degradation of the fluorescent signal. After the primary antibody incubation, cells were washed twice with PBS or flow cytometry buffer by centrifuging at 300-500× g for 5 minutes and the pellet resuspended in fresh buffer. The following antibody was added: anti-human IgG-PE at a 1:500 dilution. Cells were incubated with the secondary antibody for 30 minutes at 4° C. in the dark. Finally, cells were washed twice with PBS or flow cytometry buffer to remove any excess secondary antibody and acquired in a flow cytometer.
# Siglec-15 positive cells = test: Internalization assay (Zenon pHrodo iFL Green); assay type: cell-based; details: kinetics over 1, 2, 4, 16, and 24 hours
# Protocol: Internalization assay (Zhenon pHrodo): Sufficient volumes of 4× working solution of anti-Siglec-15 antibodies (10 nM) were prepared in cell culture medium for a total of 25 μL for each well of a 96-well plate. A working solution of Zenon™ pHrodo™ iFL IgG Labeling Reagent was prepared at 30 nM and 25 μL were added to each well. The mix was incubated for 5 minutes at room temperature to allow the labeling complexes to form. 5 mL of suspension cells at 2×10^6 cells/mL in cell culture medium were prepared and 50 μL of cells were added to each well of the 96-well plate containing the mix of anti-Siglec-15 antibody and the Zenon™ labeling reagent. Cells were incubated with the labeling complex for different timepoints (1-24 hours) under standard cell culture conditions. Fluorescence was analyzed by flow cytometry.
# [5] = test system: osteoclast differentiation; test: Osteoclast differentiation in vitro (TRACP 5b in culture medium); assay type: cell-based; details: relative to baseline levels; culture medium at day 7 (FIG. 46)
# [6] = biological target: T4, THP-1 cells overexpressing human Siglec-15; test: Binding of anti-Siglec-15 ADCs to THP-1 S15+ cells (flow cytometry); details: relative to Trastuzumab-based ADC negative control
# Protocol: Binding of anti-Siglec-15 ADCs to THP-1 S15+ cells: 50,000 cells/well of THP-1 S15 OE cells were added to a round bottom 96 well plate, centrifuged at 450×G for 5 minutes and the supernatant discarded. Human anti-siglec-15 IgG ADCs were prepared (starting at 198 nM, 3-fold serial dilution in staining buffer) and the cells were resuspended in 100 μl of ADC. Cells were incubated for 40 minutes on ice and 100 μl of staining buffer were added to each well, followed by centrifugation at 450×G for 5 minutes and supernatants were discarded. The secondary antibody was prepared (anti-human IgG-PE at 1:500 dilution) and added 100 μl to each well. Cells were incubated for 40 minutes on ice and 100 μl of staining buffer were added to each well followed by centrifugation at 450× G for 5 minutes to then discard the supernatant. Cells were resuspended in 150 μl of staining buffer and acquired in a flow cytometer.
Molecule,EC50 (ng/mL) mS15 (mouse Siglec-15),EC50 (ng/mL) hS15 (human Siglec-15 [1]),cell binding in validation screenings via flow cytometry (human Siglec-15 [2]),effect on osteoclast activation (CTX-I) (osteoclast activation),inhibition of binding of A2A5C7E8 (benchmark 2) (human Siglec-15 [3]; across all concentrations (FIG. 18D)),inhibition of binding of 5G12 (benchmark 1) (human Siglec-15 [3]; at concentrations above 10 nM (FIG. 18C)),binding to HEK293T cells expressing mutated Siglec-15 (R143A) [4],"internalization, fold increase over isotype control (Siglec-15 positive cells)",effect on osteoclast differentiation (TRACP 5b) [5],binding capacity to THP-1 cells overexpressing human Siglec-15 [6]
"ZLA-1214-D08: fully human anti-Siglec-15 IgG1, silenced Fc, phage display; VH SEQ ID NO: 42, VL SEQ ID NO: 43 (antibody, V domains shown, IgG1 silenced Fc; ZLA-1214-D08 VH; ZLA-1214-D08 VL) VH: EVQLVQSGAEVKKPGASVKVSCKASGYTFTGYYMHWVRQAPGQGLEWMGRINPNSGGTNYAQKFQGRVTMTRDTSTSTAYMELSRLRSDDTAVYYCARVINDAFDMWGQGTMVTVSS VL: [sequence of about 100 residues not given]FGQGTKVDIK",102.9 ng/mL,105.6 ng/mL,confirmed as cell binders,–,–,–,–,–,–,–
"ZLA-1214-B07: fully human anti-Siglec-15 IgG1, silenced Fc, phage display; VH SEQ ID NO: 50, VL SEQ ID NO: 51 (antibody, V domains shown, IgG1 silenced Fc; ZLA-1214-B07 VH; ZLA-1214-B07 VL) VH: QVQLVQSGAEVKKPGSSVKVSCKASGGTFSSYAISWVRQAPGQGLEWMGGIIPIFGTANYAQKFQGRVTITADESTSTAYMELSSLRSEDTAVYYCARDGGRDGYNPKKILEFDYWGQGTLVTVSS VL: [sequence of about 100 residues not given]FGPGTKVDIK",101.8 ng/mL,132.6 ng/mL,confirmed as cell binders,–,–,–,–,–,–,–
"ZLA-1243-A01: fully human anti-Siglec-15 IgG1, silenced Fc, phage display; VH SEQ ID NO: 26, VL SEQ ID NO: 27 (antibody, V domains shown, IgG1 silenced Fc; ZLA-1243-A01 VH; ZLA-1243-A01 VL) VH: [sequence of about 100 residues not given]DNEWTPGSFFDYWGQGTLVTVSS VL: QSALTQPASVSGSPGQSITISCTGTSSDVGGYNYVSWYQQHPGKAPKLMIYDVSNRPSGVSNRFSGSKSGNTASLTISGLQAEDEADYYCSSYTSSSTRVFGGGTKVTVL",75.28 ng/mL,180.6 ng/mL,–,did not significantly affect,outperformed 5G12,outperformed A2A5C7E8,demonstrated binding,approximately 2 fold,did not significantly affect,–
ZLA-1243-A01-MMAE (conjugate) VH: [sequence of about 100 residues not given]DNEWTPGSFFDYWGQGTLVTVSS VL: QSALTQPASVSGSPGQSITISCTGTSSDVGGYNYVSWYQQHPGKAPKLMIYDVSNRPSGVSNRFSGSKSGNTASLTISGLQAEDEADYYCSSYTSSSTRVFGGGTKVTVL,–,–,–,–,–,–,–,–,–,increased binding capacity
